# Results from the supplement of paper PMC8728848.
# The other results are listed elsewhere or left out.
# Key:
# Assay in all cases: glycan array binding signal (z-score within array); higher = stronger binding
# Conditions in all cases: glycan notation: IUPAC condensed, linker removed
# Fuc(a1-3)GlcNAc = target: Fuc(a1-3)GlcNAc
# Procedure, shortened: (§1)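 Glycan array data came from 3228 arrays in the Consortium for Functional Glycomics database, and only arrays with an available protein sequence were kept. Glycan names were put into IUPAC-condensed notation, and columns mapping to the same glycan were averaged. The binding signal is a within-array Z-score, averaged across arrays of one protein sequence run at different concentrations or buffers and across linkers. A negative Z-score can be read as non-binding.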
# [1] = target: Fuc(a1-3)[Gal(b1-4)]Glc6S
# Procedure, shortened: as §1
# [2] = target: Fuc(a1-3)[Gal(b1-4)]GlcNAc
# Procedure, shortened: as §1
# [3] = target: Fuc(a1-3)[Gal(b1-4)]GlcNAc(b1-2)Man
# Procedure, shortened: as §1
# [4] = target: Fuc(a1-3)[Gal(b1-4)]GlcNAc(b1-2)Man(a1-3)[Fuc(a1-3)[Gal(b1-4)]GlcNAc(b1-2)Man(a1-6)]Man(b1-4)GlcNAc(b1-4)GlcNAc
# Procedure, shortened: as §1
# [5] = target: Fuc(a1-3)[Gal(b1-4)]GlcNAc(b1-2)Man(a1-3)[Fuc(a1-3)[Gal(b1-4)]GlcNAc(b1-2)Man(a1-6)]Man(b1-4)GlcNAc(b1-4)[Fuc(a1-6)]GlcNAc
# Procedure, shortened: as §1
# [6] = target: Fuc(a1-3)[Gal(b1-4)]GlcNAc(b1-3)Gal(b1-3)[Fuc(a1-4)]GlcNAc
# Procedure, shortened: as §1
# [7] = target: Fuc(a1-3)[Gal(b1-4)]GlcNAc(b1-3)Gal(b1-4)[Fuc(a1-3)]GlcNAc
# Procedure, shortened: as §1
# [8] = target: Fuc(a1-3)[Gal(b1-4)]GlcNAc(b1-3)Gal(b1-4)[Fuc(a1-3)]GlcNAc(b1-3)Gal(b1-4)[Fuc(a1-3)]GlcNAc
# Procedure, shortened: as §1
# [9] = target: Fuc(a1-3)[Gal(b1-4)]GlcNAc(b1-3)GalNAc
# Procedure, shortened: as §1
# [10] = target: Fuc(a1-3)[Gal(b1-4)]GlcNAc(b1-6)GalNAc
# Procedure, shortened: as §1
# [11] = target: Fuc(a1-3)[Gal(b1-4)]GlcNAc(b1-6)[Gal(b1-3)GlcNAc(b1-3)]Gal(b1-4)Glc
# Procedure, shortened: as §1
# [12] = target: Fuc(a1-3)[Gal(b1-4)]GlcNAc6S
# Procedure, shortened: as §1
# [13] = target: Fuc(a1-3)[Gal3S(b1-4)]Glc
# Procedure, shortened: as §1
# [14] = target: Fuc(a1-3)[Gal3S(b1-4)]GlcNAc
# Procedure, shortened: as §1
# [15] = target: Fuc(a1-3)[Gal3S(b1-4)]GlcNAc6S
# Procedure, shortened: as §1
# [16] = target: Fuc(a1-3)[GalNAc(b1-4)]GlcNAc
# Procedure, shortened: as §1
# [17] = target: Fuc(a1-3)[GalNAc(b1-4)]GlcNAc6S
# Procedure, shortened: as §1
# Fuc(a1-4)GlcNAc = target: Fuc(a1-4)GlcNAc
# Procedure, shortened: as §1
# Fuc(b1-3)GlcNAc = target: Fuc(b1-3)GlcNAc
# Procedure, shortened: as §1
# Gal(a1-2)Gal = target: Gal(a1-2)Gal
# Procedure, shortened: as §1
# Gal(a1-3)Gal = target: Gal(a1-3)Gal
# Procedure, shortened: as §1
# Gal(a1-3)Gal(b1-3)GlcNAc = target: Gal(a1-3)Gal(b1-3)GlcNAc
# Procedure, shortened: as §1
# [18] = target: Gal(a1-3)Gal(b1-3)GlcNAc(b1-2)Man
# Procedure, shortened: as §1
# [19] = target: Gal(a1-3)Gal(b1-3)GlcNAc(b1-2)Man(a1-3)[Gal(a1-3)Gal(b1-3)GlcNAc(b1-2)Man(a1-6)]Man(b1-4)GlcNAc(b1-4)GlcNAc
# Procedure, shortened: as §1
# [20] = target: Gal(a1-3)Gal(b1-3)GlcNAc(b1-3)GalNAc
# Procedure, shortened: as §1
# [21] = target: Gal(a1-3)Gal(b1-3)GlcNAc(b1-6)GalNAc
# Procedure, shortened: as §1
# [22] = target: Gal(a1-3)Gal(b1-3)[Fuc(a1-4)]GlcNAc(b1-2)Man(a1-3)[Gal(a1-3)Gal(b1-3)[Fuc(a1-4)]GlcNAc(b1-2)Man(a1-6)]Man(b1-4)GlcNAc(b1-4)GlcNAc
# Procedure, shortened: as §1
# Gal(a1-3)Gal(b1-4)Glc = target: Gal(a1-3)Gal(b1-4)Glc
# Procedure, shortened: as §1
# Gal(a1-3)Gal(b1-4)GlcNAc = target: Gal(a1-3)Gal(b1-4)GlcNAc
# Procedure, shortened: as §1
# [23] = target: Gal(a1-3)Gal(b1-4)GlcNAc(b1-2)Man
# Procedure, shortened: as §1
# [24] = target: Gal(a1-3)Gal(b1-4)GlcNAc(b1-2)Man(a1-3)[Gal(a1-3)Gal(b1-4)GlcNAc(b1-2)Man(a1-6)]Man(b1-4)GlcNAc(b1-4)GlcNAc
# Procedure, shortened: as §1
# [25] = target: Gal(a1-3)Gal(b1-4)GlcNAc(b1-3)GalNAc
# Procedure, shortened: as §1
# [26] = target: Gal(a1-3)Gal(b1-4)GlcNAc(b1-6)GalNAc
# Procedure, shortened: as §1
# [27] = target: Gal(a1-3)Gal(b1-4)[Fuc(a1-3)]GlcNAc
# Procedure, shortened: as §1
# [28] = target: Gal(a1-3)Gal(b1-4)[Fuc(a1-3)]GlcNAc(b1-2)Man(a1-3)[Gal(a1-3)Gal(b1-4)[Fuc(a1-3)]GlcNAc(b1-2)Man(a1-6)]Man(b1-4)GlcNAc(b1-4)GlcNAc
# Procedure, shortened: as §1
# Gal(a1-3)GalNAc = target: Gal(a1-3)GalNAc
# Procedure, shortened: as §1
# [29] = target: Gal(a1-3)[Gal(a1-4)]Gal(b1-4)GlcNAc
# Procedure, shortened: as §1
# [30] = target: Gal(a1-4)Gal(b1-3)GlcNAc(b1-2)Man(a1-3)[Gal(a1-4)Gal(b1-3)GlcNAc(b1-2)Man(a1-6)]Man(b1-4)GlcNAc(b1-4)GlcNAc
# Procedure, shortened: as §1
# Gal(a1-4)Gal(b1-4)Glc = target: Gal(a1-4)Gal(b1-4)Glc
# Procedure, shortened: as §1
# Gal(a1-4)Gal(b1-4)GlcNAc = target: Gal(a1-4)Gal(b1-4)GlcNAc
# Procedure, shortened: as §1
# [31] = target: Gal(a1-4)Gal(b1-4)GlcNAc(b1-2)Man(a1-3)[Gal(a1-4)Gal(b1-4)GlcNAc(b1-2)Man(a1-6)]Man(b1-4)GlcNAc(b1-4)GlcNAc
# Procedure, shortened: as §1
# [32] = target: Gal(a1-4)Gal(b1-4)GlcNAc(b1-3)Gal(b1-4)Glc
# Procedure, shortened: as §1
# Gal(a1-4)GlcNAc = target: Gal(a1-4)GlcNAc
# Procedure, shortened: as §1
# Gal(a1-6)Glc = target: Gal(a1-6)Glc
# Procedure, shortened: as §1
binder,measurement,setting,value
Arath Fbox LD (Arabidopsis thaliana) (protein) EFSVWLEKASGKRCLMLSAMNLSIIWGDNPQYWQWIPIPESRFEKVAKLRDVCWFEIRGRTNTRVLSPRTRYSAYIVFKGVDKCYGFQNVAIEAAVGVVGQEPSRRLICFSEAIRRGRRNVVKPKQREDGWMEIELGEFFNDGGIMDNDEIEMSALETKQLNRKCGLIIQGIEIRPAKILAAASFLEQKLISEEDLNSAVDHHHHHH,glycan array binding signal (z-score),Fuc(a1-3)GlcNAc,-0.276
same,glycan array binding signal (z-score),[1],-0.335
same,glycan array binding signal (z-score),[2],0.2
same,glycan array binding signal (z-score),[3],-0.442
same,glycan array binding signal (z-score),[4],-0.396
same,glycan array binding signal (z-score),[5],2.04
same,glycan array binding signal (z-score),[6],-0.585
same,glycan array binding signal (z-score),[7],0.104
same,glycan array binding signal (z-score),[8],0.218
same,glycan array binding signal (z-score),[9],-0.455
same,glycan array binding signal (z-score),[10],-0.485
same,glycan array binding signal (z-score),[11],-0.56
same,glycan array binding signal (z-score),[12],-0.461
same,glycan array binding signal (z-score),[13],-0.156
same,glycan array binding signal (z-score),[14],1.06
same,glycan array binding signal (z-score),[15],-0.382
same,glycan array binding signal (z-score),[16],-0.431
same,glycan array binding signal (z-score),[17],-0.329
same,glycan array binding signal (z-score),Fuc(a1-4)GlcNAc,-0.362
same,glycan array binding signal (z-score),Fuc(b1-3)GlcNAc,-0.104
same,glycan array binding signal (z-score),Gal(a1-2)Gal,-0.171
same,glycan array binding signal (z-score),Gal(a1-3)Gal,0.075
same,glycan array binding signal (z-score),Gal(a1-3)Gal(b1-3)GlcNAc,9.37
same,glycan array binding signal (z-score),[18],1.04
same,glycan array binding signal (z-score),[19],2.08
same,glycan array binding signal (z-score),[20],-0.11
same,glycan array binding signal (z-score),[21],-0.583
same,glycan array binding signal (z-score),[22],2.84
same,glycan array binding signal (z-score),Gal(a1-3)Gal(b1-4)Glc,-0.127
same,glycan array binding signal (z-score),Gal(a1-3)Gal(b1-4)GlcNAc,0.134
same,glycan array binding signal (z-score),[23],-0.233
same,glycan array binding signal (z-score),[24],0.168
same,glycan array binding signal (z-score),[25],-0.448
same,glycan array binding signal (z-score),[26],-0.577
same,glycan array binding signal (z-score),[27],0.109
same,glycan array binding signal (z-score),[28],0.64
same,glycan array binding signal (z-score),Gal(a1-3)GalNAc,-0.496
same,glycan array binding signal (z-score),[29],1.55
same,glycan array binding signal (z-score),[30],-0.133
same,glycan array binding signal (z-score),Gal(a1-4)Gal(b1-4)Glc,-0.229
same,glycan array binding signal (z-score),Gal(a1-4)Gal(b1-4)GlcNAc,-0.551
same,glycan array binding signal (z-score),[31],-0.219
same,glycan array binding signal (z-score),[32],-0.611
same,glycan array binding signal (z-score),Gal(a1-4)GlcNAc,-0.538
same,glycan array binding signal (z-score),Gal(a1-6)Glc,-0.389
